Source: the supplement of paper PMC3334620
In all, about 33,000 sequences were measured (“E-score (-0.5 to 0.5)”: median about -0.011, highest 2% from about 0.28 on). The list shows a part of the results.

These sequences were tested against T1, Gcr1 (UniProt P07261) (assay: PBM E-score (8-mer binding enrichment) (E-score (-0.5 to 0.5)); higher = stronger / more preferred TF binding; most listed sequences are background and not binding sites). Conditions: protein concentration: 100 nM; construct: GST-full length.
T1 sequence: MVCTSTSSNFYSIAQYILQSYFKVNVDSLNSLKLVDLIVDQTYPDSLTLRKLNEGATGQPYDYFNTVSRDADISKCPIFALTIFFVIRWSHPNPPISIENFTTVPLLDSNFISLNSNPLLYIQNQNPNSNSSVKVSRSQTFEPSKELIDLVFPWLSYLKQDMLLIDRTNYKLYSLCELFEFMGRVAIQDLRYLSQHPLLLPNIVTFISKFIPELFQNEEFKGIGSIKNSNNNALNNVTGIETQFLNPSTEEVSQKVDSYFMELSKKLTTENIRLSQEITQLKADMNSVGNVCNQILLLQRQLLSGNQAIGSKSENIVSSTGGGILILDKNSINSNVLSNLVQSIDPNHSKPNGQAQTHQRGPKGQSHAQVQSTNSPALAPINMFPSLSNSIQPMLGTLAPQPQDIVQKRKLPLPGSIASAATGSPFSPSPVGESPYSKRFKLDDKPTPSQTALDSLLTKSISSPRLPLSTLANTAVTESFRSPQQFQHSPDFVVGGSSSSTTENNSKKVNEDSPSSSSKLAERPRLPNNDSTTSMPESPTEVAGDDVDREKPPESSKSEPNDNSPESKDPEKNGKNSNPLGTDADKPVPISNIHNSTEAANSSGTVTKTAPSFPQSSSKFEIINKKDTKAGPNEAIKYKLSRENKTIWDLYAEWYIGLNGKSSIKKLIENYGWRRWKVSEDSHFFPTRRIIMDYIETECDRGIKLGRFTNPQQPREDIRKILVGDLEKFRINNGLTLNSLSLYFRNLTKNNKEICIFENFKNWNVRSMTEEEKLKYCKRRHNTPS
Protocol: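 Universal 'all 10-mer' protein binding microarrays (Agilent AMADID 015681) probed with GST-tagged S. cerevisiae TFs (full-length or DBD) made by in vitro transcription/translation (PURExpress), about 100-200 nM. Bound TF was detected with fluorescent anti-GST. Each ungapped 8-mer (which stands for itself and its reverse complement) is scored by the PBM enrichment score (E-score), a modified Wilcoxon-Mann-Whitney statistic from -0.5 to +0.5, computed with the Universal PBM Analysis Suite. Scale: above 0.35 generally sequence-specific binding.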

Point of comparison: CCGGATGC, “PBM E-score” value 0.4. Against it:
- CTGAGAAA — lower, -0.00378
- CTCCCCTC — lower, -0.0497
- CACGACAA — lower, -0.2
- AAGTACAA — lower, -0.0355
- ATCCGATA — lower, 0.2
- GGGTATCA — lower, -0.125
- AGAGGACT — lower, 0.042
- AGGTTTAC — lower, -0.00155
- CGGATCCA — lower, 0.235
- AGTAGTCA — lower, -0.0714
- AACACCAC — lower, 0.00522
- GCTGAAAA — lower, 0.0407
- CTATGAAC — lower, 0.0664
- GAAGGCTA — lower, -0.239
- AACGAGGG — lower, 0.0827
- CTTATCTC — lower, 0.0249
- CAGACCTG — lower, -0.308
- AGGTTAAT — lower, -0.0118
- ACTCAGAA — lower, 0.103
- GAGACAAC — lower, -0.107
- AAAGCAGT — lower, 0.143
- GAGGTGAC — lower, 0.075
- CCATCATA — lower, -0.0227
- AGCTTACC — lower, -0.301
- AATGGCCC — lower, -0.112
- CGGAATGC — lower, 0.174
- ACGTCACG — lower, -0.0191
- AGGCATAC — lower, -0.0777
- ACATTCAA — lower, -0.0575
- AATAACCT — lower, -0.113
- GAGTGTCC — lower, -0.0502
- GGTCGTAA — lower, -0.147
- CGCACGCC — lower, -0.0905
- ATTTGTTC — lower, 0.0973
- ACTCTCTG — lower, -0.137
- AGGATTAG — lower, 0.0547
- CCGGGACA — lower, -0.0293
- GCTGTACC — lower, 0.0537
- AAGGTGCG — lower, -0.142
- ACACTCAA — lower, 0.0334
- AAGCTACC — lower, 0.178
- TACTCGCA — lower, -0.146
- GTTACGGA — lower, 0.0899
- GACATCGA — lower, -0.157
- ATGTATTA — lower, 0.0636
- CGCACCGC — lower, -0.0652
- ATCGAGGA — lower, 0.0116
- AACTCTTA — lower, -0.0847
- GGCCCGAC — lower, -0.214
- CGCTCACC — lower, -0.158
- GCTATACC — lower, -0.0854
- AGCACCTG — lower, 0.102
- AACGGTCC — lower, -0.271
- AAACAAGC — lower, 0.0265
- AATGCCAA — lower, 0.042
- ACCTGCCC — lower, -0.2
- AGTCCGGG — lower, -0.0176
- CGTCGCCA — lower, 0.0608
- CTGCCTAC — lower, 0.0139
- ATCCAGGG — lower, 0.0864
- TAACCGTA — lower, -0.00909
- GGACCCAA — lower, 0.17
- GCTATTCA — lower, -0.0743
- GAGAGAAA — lower, 0.0376
- CCCGCGCG — lower, -0.177
- CGGGTGAA — lower, 0.0211
- GGCCGGAC — lower, -0.222
- GCCAGCTA — lower, -0.135
- AATACGTG — lower, 0.0495
- GACGGATC — lower, -0.0848
- AAAACATA — lower, -0.123
- AGTATCTC — lower, 0.139
- GACTTTGC — lower, -0.106
- CGTTCACC — lower, -0.119
- AAAACGTA — lower, 0.104
- CTAGGATA — lower, -0.0867
- ACGCTATG — lower, -0.0359
- CCATTCCC — lower, -0.0773
- CGTGAACG — lower, 0.0112
- ATAAATTG — lower, 0.135
- GCTTTAAC — lower, -0.0563
- ATTGATTG — lower, 0.16
- AAAAATAT — lower, 0.247
- GCGATCAC — lower, -0.0279
- AGACCAAC — lower, 0.0298
- CAAGGATG — lower, -0.0389
- CTTGGCGA — lower, -0.1
- AAGAGCTA — lower, -0.0799
- ACTCGCCC — lower, -0.336
- GGCTCAAA — lower, 0.0366
- CCAACCTC — lower, -0.144
- ACGGCCGG — lower, -0.15
- ACATTTGA — lower, 0.101
- TAAGCGAA — lower, 0.101
- AATCTTGC — lower, -0.0446
- CCTGGAGC — lower, 0.173
- ACTATTAC — lower, 0.187
- TATAACCA — lower, -0.177
- CTAAAGTC — lower, -0.117
- CTACATAA — lower, 0.0313
- GTTGCAAC — lower, 0.00911
- CATAGGCC — lower, -0.243
- AATGCCGG — lower, 0.0215
- TAATTAGA — lower, 0.155
- AAGAAACC — lower, 0.0595
- ACCATCGA — lower, -0.119
- GTCAGCAA — lower, -0.063
- AGCCATTA — lower, 0.0444
- ACACGTTC — lower, -0.11
- TGACATCA — lower, 0.0357
- CTTGATTC — lower, 0.133
- ACCCAACA — lower, 0.119
- ATACTCTG — lower, -0.141
- ATAGTTGA — lower, -0.0782
- AAGGAGAA — lower, 0.279
- AGAGCTAA — lower, -0.219
- ACGAAGAG — lower, 0.0429
- AGATCATC — lower, -0.0834
- CAGGCAGC — lower, 0.285
- ACGCTACT — lower, 0.0916
- ATTTATAA — lower, 0.124
- CTAGTAAG — lower, -0.0342
- CTTGAGTA — lower, -0.0746
- ACAGAAGG — lower, -0.0795
- ATCTAATC — lower, 0.0385
- CATATTGC — lower, -0.0878
- CATCGGCC — lower, -0.274
- AGGTAGCC — lower, 0.238
- GAAGCAGC — lower, 0.24
- CATGATGG — lower, -0.0335
- ACAGCCTG — lower, -0.19
- CGGCACAC — lower, -0.134
- TATCTAGA — lower, 0.142
- CTGGCAAC — lower, 0.17
- AGTCAGAA — lower, 0.0882
- ATAGATCA — lower, 0.00234
- AGTTAGAC — lower, -0.0255
- GGTAGCAA — lower, 0.0758
- ATGCAAGC — lower, -0.0754
- ATAACACA — lower, 0.0102
- ATTGTTGA — lower, -0.0275
- AAGTAGTG — lower, 0.0424
- GGGCGGAA — lower, -0.127
- CCTAGGAG — lower, -0.0611
- TAATAGTA — lower, 0.193
- ATCGGAAG — lower, 0.193
- GTTTATTA — lower, 0.176
- GTCCTCCA — lower, 0.0446
- ACATCCAA — lower, 0.186
- AACGGACT — lower, -0.231
- ACGGCACA — lower, -0.148
- ACCAAGCG — lower, -0.0948
- GTCGGCCA — lower, -0.0681
- CCCTAAAA — lower, 0.101
- GGATGAAC — lower, -0.232
- CCGATCAA — lower, -0.0605
- CTAGCGCA — lower, -0.202
- CTCGGGAA — lower, 0.104
- AGTAACAC — lower, -0.172
- ATGGGACC — lower, 0.0745
- CCAATTAG — lower, 0.131
- TACATGTA — lower, 0.18
- CCCCCCAC — lower, -0.0948
- CCAGACTA — lower, -0.0971
- CTCAGTGC — lower, -0.0638
- CGGGTACG — lower, -0.0171
- CTTAGCCA — lower, -0.062
- CATAACTA — lower, -0.103
- GAGGAGAA — lower, 0.0667
- CAGGGAGC — lower, 0.165
- CACATTTC — lower, 0.0972
